Data set [1] concerns mice with chronic constriction injury (CCI) of the sciatic nerve. Nature of the data set: Reversal of CCI-induced thermal hyperalgesia. It counts as in vivo.
The subject of a further data set is C57bl/6j mice. In words: Reduction of body temperature (hypothermia). The following applies: Table 1; decreasing body temperature, separate cohort of C57bl/6j mice.
In data set [2] the test system is C57bl/6j mice with chronic constriction injury of the sciatic nerve (CCI). In words: Reversal of CCI-induced mechanical allodynia (von Frey assay). The following applies: for Allodynia ED50 ((95% CL): CCI mice; for ED50: Mus musculus, read-out: Allodynia ED50 ((95% CL) mg/kg).
A short description of data set [3]: Reduction of body temperature (hypothermia). The following applies: C57bl/6j, mouse, in vivo, Body Temp. ED50 ((95% CL) mg/kg), Table 1; decreasing body temperature, separate cohort of C57bl/6j mice.

Where two headings read alike, the source gives them in different places.

For 10-methyl-CBN [ax-CBN], the “Reversal of CCI-induced thermal hyperalgesia (in words)” value in data set [1] is given as “dose-relatedly reversed CCI-induced thermal hyperalgesia”. Further, the “Thermal Hyperalgesia ED50 ((95% CL)” value in data set [1] (Table 4, reverse thermal hyperalgesia) was 126.01 mg/kg. The “Body Temp. ED50 ((95% CL)” value with C57bl/6j mice was found to be 318.4 mg/kg. Further, the “Allodynia ED50 ((95% CL)” value in data set [2] (Table 1, reversing mechanical allodynia, 7 days post-surgery) was determined as 170.0 mg/kg; in data set [2] (Table 4, reverse allodynia), 153.01 mg/kg.

On to `CCCCCc1cc(O)c2c(c1)OC(C)(C)[C@@H]1CCC(C)=C[C@@H]21` [THC, (−)-trans-Δ^9-tetrahydrocannabinol], for which the “Reversal of CCI-induced thermal hyperalgesia (in words)” value in data set [1] is reported as “dose-relatedly reversed CCI-induced thermal hyperalgesia”. The ED50 turned out to be 15.9 mg/kg in data set [1] (Mus musculus, Table 4, reverse thermal hyperalgesia, read-out: Thermal Hyperalgesia ED50 ((95% CL)); 21.2 mg/kg in data set [3]; 29.9 mg/kg in data set [2] (168 h); 30.3 mg/kg in data set [2].

For the origin of these results see patent US12569503B2, “Methods and compositions for substituted axially-chiral cannabinol analogs” (University of Florida Research Foundation, Inc., priority 2019, dated 2026).
